Source: the RNAGym collection of RNA variant scans (doi:10.7554/elife.90254)
The source gives no read counts; variants with many changes may rest on few reads.

B1: LINE1-mini (parent)
chain: GGCAGAGCUCAACACAGCGUGGCAAAGUGGCUGUGGCUAGACUGCC

Variants of: B1
Experiment: self-cleavage, relative activity (ratio to wild type); higher = more cleavage; in vitro, sequencing; the parent is a self-cleaving ribozyme
Work on A16G C18U U20G C23U C46G yielded a self-cleavage of 0.12. A4G G7A C10U A25C G33A U34G gave a self-cleavage of 0.05. Work on A6C U28G G33A yielded a self-cleavage of 0.02. A14G A26U G30A G33A showed a self-cleavage of 0.08. Variant C3A U34G C37U has a self-cleavage of 0.24. With G2A G5A A24C G27U G30U the self-cleavage was 0.23. In the case of A4U C15A U38C, the self-cleavage is reported as 0.11. For C31G A39G C45A, the self-cleavage was 0.04. Variant A12G U28A U34C C37G has a self-cleavage of 0.02. Variant A4G G7C A25C G35A has a self-cleavage of 0.05. With U9G A11G A24U G35A G40U the self-cleavage was 0.06. C8G A26U U43C gave a self-cleavage of 0.02. With A4U G5U C45G the self-cleavage was 0.05. Variant A11C G30A A39C has a self-cleavage of 0.01. Variant A4U C8G U9C A16G C18U C42U C46G has a self-cleavage of 0.01. G21A A25G G33A U34C gave a self-cleavage of 0.02. For C3U C13A G19C, the self-cleavage was 0.03. With C10U A24G U32A the self-cleavage was 0.03. Variant U9A A16G C23G U34C has a self-cleavage of 0.11. In the case of U20G A26U U32A C45A C46G, the self-cleavage is reported as 0.01. In the case of C15A G19C C37U G40A, the self-cleavage is reported as 0.04. A14G U28C C31G C42U gave a self-cleavage of 0.16. With U9G A25G U43A the self-cleavage was 0.02. Work on G5A C23A C46G yielded a self-cleavage of 0.39. A12G C18A G19U showed a self-cleavage of 0.01. Work on U34G C37A A39G yielded a self-cleavage of 0.01. For C23A G36C C42U, the self-cleavage was 0.44. Work on A16U U20G C37A yielded a self-cleavage of 0.01. G27U U28C C45A gave a self-cleavage of 1.19. For U9G G17U A24G, the self-cleavage was 0.02. With A11G A24G G30C the self-cleavage was 0.02. A11U C13A G35C U43C showed a self-cleavage of 0. Variant A24U G27A C46G has a self-cleavage of 1.53. A4C C15U G40A showed a self-cleavage of 0.09. G7A C10A G36A showed a self-cleavage of 0.02. In the case of A11U A16G G29C G30A, the self-cleavage is reported as 0.05. Variant C3G G17U C23A G35A G44U has a self-cleavage of 0.01. In the case of G7C U28G G33U, the self-cleavage is reported as 0.09. C10A A25U U34C gave a self-cleavage of 0.01. For G7U G29U A41U C42A, the self-cleavage was 0.04. Work on C3A C15A G17C U34A A41U yielded a self-cleavage of 0.05. C10A C23A U32A showed a self-cleavage of 0.01. For A12U C18U C31U U43C C45G, the self-cleavage was 0.02. Variant G7A C8A G21C has a self-cleavage of 0.11. In the case of A11G G17U A25G G44C, the self-cleavage is reported as 0. For C18U C23U A25U G30C, the self-cleavage was 1.27. For G5A C31U C37G C46A, the self-cleavage was 0.03. Work on C3U C23U U34A yielded a self-cleavage of 0.06. With G7C U20A G27A C31A the self-cleavage was 0.03. C8G C15G A16G U20G G27C U28C gave a self-cleavage of 0. A4C U9C A25G gave a self-cleavage of 0. Work on A6G C15A G17A G35C yielded a self-cleavage of 0. For G27C U32C A39G, the self-cleavage was 0.04. Work on A4C G19C U20C A25C G36U yielded a self-cleavage of 0. G19A U20A A41U U43A gave a self-cleavage of 0.12. In the case of G17C A25C G40A, the self-cleavage is reported as 0.03. With C3G G5A U32C the self-cleavage was 0.12. In the case of A4G A11C G35U, the self-cleavage is reported as 0.06. A6C G17A A39C G40A showed a self-cleavage of 0.1. Variant G27C U28C C31G C42G has a self-cleavage of 0.05. Work on G21U C42G G44U yielded a self-cleavage of 0.02. Work on G1C C10G A41C yielded a self-cleavage of 0.02. With A12C U20G G35U the self-cleavage was 0. With C8A U9A C18A G40C the self-cleavage was 0.06. With G21U A39C G44U the self-cleavage was 0. G5A C8A A25C C42U G44C gave a self-cleavage of 0.02. In the case of G21A U28C A41G, the self-cleavage is reported as 0.54. C10A G30C U38C showed a self-cleavage of 0.21. With A4C U28A U32A the self-cleavage was 0.02. Variant C18A C37G A39G has a self-cleavage of 0.15. Work on C10A C37A G40C yielded a self-cleavage of 0.05. For A4C C31G G33A G36U, the self-cleavage was 0.06. A14C A26C G35U gave a self-cleavage of 0.21. With A6C G33A C37U the self-cleavage was 0.06. With G7C G22A U38G C45A the self-cleavage was 0.01. Work on U32A G33U G35U C37U yielded a self-cleavage of 0.07. Variant A6G C13G G17U has a self-cleavage of 0.03. G1U C13G A25C C31A A39U gave a self-cleavage of 0.07. In the case of A12U C15A A16U C31U A39C C45U C46G, the self-cleavage is reported as 0.01. For U34G C42U C45U, the self-cleavage was 0.01. Work on G2C G29C U43G yielded a self-cleavage of 0. C13G A25U C31A showed a self-cleavage of 0.11. Variant G1A G33U C42A C45G has a self-cleavage of 0.04. In the case of G7U G27U U34G, the self-cleavage is reported as 0.03. Work on G40U C42A G44U yielded a self-cleavage of 0. U9G G17U G22C G35C gave a self-cleavage of 0.02. In the case of C3G C8G C42U, the self-cleavage is reported as 0.05. Work on U20C G33U C46A yielded a self-cleavage of 0.39. G27C G44C C46G showed a self-cleavage of 0.07. In the case of G5A C10U C15G A25G G35A, the self-cleavage is reported as 0.03. G19A U34A G35U G44A showed a self-cleavage of 0.02. In the case of G17A G22A A41G, the self-cleavage is reported as 0.03. Variant A4U G5U U9G A41C has a self-cleavage of 0.08. Work on A12U G21U G40U yielded a self-cleavage of 0.06. Variant G19C G29A G33U U34G has a self-cleavage of 0.06. For A11G C13G A14U U20G, the self-cleavage was 0.02. Variant U9G G17C G36U A41G C45U has a self-cleavage of 0.01. Variant A6G A16G G19U G27U C31A C37G has a self-cleavage of 0.01. In the case of A6U G21A C37A U38A, the self-cleavage is reported as 0.06. In the case of C13U G19C C31G C46G, the self-cleavage is reported as 0.12. G2A A6U C8A showed a self-cleavage of 0.26. In the case of G2A A4G A12G U38A A41G, the self-cleavage is reported as 0.05. For G7A G21C C37U C45A, the self-cleavage was 0.04. Variant G7A U32A C42G has a self-cleavage of 0.03. Variant A12C C18U G21U G33U U43A has a self-cleavage of 0.11. Work on G2U A11G G40C C46A yielded a self-cleavage of 0. For G1U G17C U34G G40A C45U, the self-cleavage was 0.01. Variant G36A A39U G44C has a self-cleavage of 0.1. G5U C13A G22U G36U A39G gave a self-cleavage of 0.03. Work on G5U A6C C8G C42A yielded a self-cleavage of 0.05. A6G C18G U20C gave a self-cleavage of 0.03. With A4G A11G C46U the self-cleavage was 0.02. In the case of C8A G35A G36C, the self-cleavage is reported as 0.19. For G7U U9C U32A U38C, the self-cleavage was 0.09. With G22U U38A C45A the self-cleavage was 0.06. In the case of U9G C10G U20A G27A, the self-cleavage is reported as 0.01. Variant G2U A4C G17U A24U C31A C37G has a self-cleavage of 0.17. Variant C18A G33A A39U has a self-cleavage of 0.02. With A11U G21U G27C the self-cleavage was 0.06. G7C C8G U34A showed a self-cleavage of 0.03. Work on G5U U9C G22A C23A G36C C37G yielded a self-cleavage of 0.01. Work on G2A A16U A24U yielded a self-cleavage of 0.17. Variant U9A G27C U38G A39U G40C has a self-cleavage of 0.02. G21C U28C A39U showed a self-cleavage of 0.35. Work on G5U G7U U28G G35U A39G yielded a self-cleavage of 0. G1U G22A U32G gave a self-cleavage of 0.17. With A4U G27A G29U the self-cleavage was 0.22. Variant G7U A11U G44A has a self-cleavage of 0.04. G1U A4G A6C gave a self-cleavage of 0.03. C15U G29U U43A gave a self-cleavage of 0.05. For A11U G17C U34A G35U C37A, the self-cleavage was 0. For A12C C13G C15A A26G A39G A41U, the self-cleavage was 0.02. Variant A4U A11U A24G has a self-cleavage of 0. For C10A A16U G35C, the self-cleavage was 0.03. Work on A4C C15G G30A G33U C45A C46A yielded a self-cleavage of 0. G19C C23U C37U U38G G44A showed a self-cleavage of 0.01. Variant C15A G19U G36U has a self-cleavage of 0.08. For G1C G19U G21U U28A G36C G44A C45A, the self-cleavage was 0. A14G G19A U20A G22A C45A showed a self-cleavage of 0.3. Variant A26C G27C C46A has a self-cleavage of 2.09. In the case of C15U G19A G33A U43A, the self-cleavage is reported as 0.02. A25C A26C U28C C31U G33A U38C showed a self-cleavage of 0.04. A6U G21A A25U C37A gave a self-cleavage of 0.06. With G1C G21U G22C the self-cleavage was 0.09. Variant G5C C10G A11C G30A has a self-cleavage of 0.02. G21A A25U G33C U43A G44U gave a self-cleavage of 0.04. For A16U U32C C37U, the self-cleavage was 0.04. For G2U C8G G27C G30U G36C, the self-cleavage was 0.01. With A11U C13U C42A the self-cleavage was 0.03. Variant G2A A11C G22C has a self-cleavage of 0.03. Variant G5U C15U G21A G40U has a self-cleavage of 0.22. Variant G7A U9G U28G G33C U38G has a self-cleavage of 0.02. Variant G30A U32C C46G has a self-cleavage of 0.07. Variant C18A A26G C31A has a self-cleavage of 0.05. In the case of C15A G21C G29A G36A, the self-cleavage is reported as 0.02. In the case of G7U A14C G19U G30C, the self-cleavage is reported as 0.13. A12C C37U U38A showed a self-cleavage of 0.01. Variant U20G C23G G30U U32G G40U has a self-cleavage of 0.02. G7U C18U C46G showed a self-cleavage of 0.04. With G2U A24G C31G G40U the self-cleavage was 0.05. C8A G17A G40A C46U gave a self-cleavage of 0.1. With C10U C15A G30U the self-cleavage was 0.02. In the case of G21U C23U C31U, the self-cleavage is reported as 0.57. For G1U A6U A14U G19C, the self-cleavage was 0.07. G1U C23U A25U gave a self-cleavage of 0.19. For G5C C23G G36U, the self-cleavage was 0.06. C8G G22C G30A U34C gave a self-cleavage of 0.13.
